The record followed here is paper PMC4336329 (PLoS ONE, 2015).

Screen size: about 310,000 compounds; about 14,000 (4.5%) showed an effect of 50% or more. Effects have a minus sign here. The list shows a part of the results.
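Note: peak tail current of the secondary pulse compared with the same well before compound.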

Sequence of human ether-à-go-go-related gene (hERG) potassium channel (Q12809 whole entry, looked up): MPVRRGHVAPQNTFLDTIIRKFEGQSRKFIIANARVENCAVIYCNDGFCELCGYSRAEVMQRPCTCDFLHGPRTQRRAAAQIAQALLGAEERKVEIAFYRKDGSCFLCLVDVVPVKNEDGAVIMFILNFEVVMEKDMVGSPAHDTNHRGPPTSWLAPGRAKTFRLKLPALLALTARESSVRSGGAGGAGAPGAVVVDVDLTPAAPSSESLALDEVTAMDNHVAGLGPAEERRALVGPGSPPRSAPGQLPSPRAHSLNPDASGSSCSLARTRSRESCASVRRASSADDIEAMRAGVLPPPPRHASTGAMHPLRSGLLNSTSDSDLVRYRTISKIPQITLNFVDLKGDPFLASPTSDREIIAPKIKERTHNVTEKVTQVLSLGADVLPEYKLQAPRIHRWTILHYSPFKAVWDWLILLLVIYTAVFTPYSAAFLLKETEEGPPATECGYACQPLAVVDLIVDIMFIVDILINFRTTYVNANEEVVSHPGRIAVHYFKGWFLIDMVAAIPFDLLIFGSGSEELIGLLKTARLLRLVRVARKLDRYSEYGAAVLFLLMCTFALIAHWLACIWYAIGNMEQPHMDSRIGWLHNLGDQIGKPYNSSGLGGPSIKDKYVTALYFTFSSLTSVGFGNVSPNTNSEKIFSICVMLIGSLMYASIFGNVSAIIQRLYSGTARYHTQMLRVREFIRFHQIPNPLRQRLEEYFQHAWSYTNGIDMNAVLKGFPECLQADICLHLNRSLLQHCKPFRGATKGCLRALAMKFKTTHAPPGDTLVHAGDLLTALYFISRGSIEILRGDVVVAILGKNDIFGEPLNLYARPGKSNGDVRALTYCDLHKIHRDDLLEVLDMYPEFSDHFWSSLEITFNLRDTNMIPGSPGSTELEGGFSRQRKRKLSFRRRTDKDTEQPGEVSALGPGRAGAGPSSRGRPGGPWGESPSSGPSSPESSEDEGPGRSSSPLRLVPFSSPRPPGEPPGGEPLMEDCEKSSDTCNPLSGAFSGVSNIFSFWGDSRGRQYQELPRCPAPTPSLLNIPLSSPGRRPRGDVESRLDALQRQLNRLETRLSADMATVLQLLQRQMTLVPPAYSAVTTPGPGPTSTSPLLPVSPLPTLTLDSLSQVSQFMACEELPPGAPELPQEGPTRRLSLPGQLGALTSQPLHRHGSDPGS

This test addresses human ether-à-go-go-related gene (hERG) potassium channel (human, UniProt Q12809). Put plainly: primary screen, population patch clamp on CHO cells stably expressing hERG.
For `Cc1ccc(CNC(=O)CCc2ccc(S(=O)(=O)NCC(C)C)cc2)cc1`, the “hERG current change (%, negative = inhibition) at 10uM” value was -2.4%.

For the compound `O=C(Cn1cccc1)Nc1ccc(F)cc1F`, the “hERG current change (%, negative = inhibition) at 10uM” value was -10.2%.

Consider `CCNc1nc(Oc2ccc(OC)cc2)cc(C(F)(F)F)n1`, for which the “hERG current change (%, negative = inhibition) at 10uM” value is 9.28%.

Consider `CC(=O)Nc1ccc(NC(=O)c2ccc(NS(=O)(=O)c3cc(C(C)(C)C)cc(C)c3C)cc2)cc1`, for which the “hERG current change (%, negative = inhibition) at 10uM” value was -7.41%.

Consider `Cc1nc2nc(-c3cccnc3)[nH]n2c(=O)c1C`, for which the “hERG current change (%, negative = inhibition) at 10uM” value is 22.7%.

Regarding `Cc1[nH]nc2c1C(=O)CC(C)(C)C2`, the “hERG current change (%, negative = inhibition) at 10uM” value amounted to 6.13%.

Take `Cc1ccc([N+](=O)[O-])c(C)[n+]1C.[I-]`: the “hERG current change (%, negative = inhibition) at 10uM” value was determined as 34.3%.

Consider `NC(=O)c1ccc(=O)n(Cc2ccc(F)c(F)c2)c1`, for which the “hERG current change (%, negative = inhibition) at 10uM” value worked out at 14.2%.

Take `Cn1c(=O)c2c(nc(NCc3ccccc3)n2CCCc2ccccc2)n(C)c1=O`: the “hERG current change (%, negative = inhibition) at 10uM” value is on record as -22.7%.

As to `O=C(NCc1cccc(C(F)(F)F)c1)N1CCN(S(=O)(=O)c2ccccc2F)CC1`, the “hERG current change (%, negative = inhibition) at 10uM” value is reported as -31.2%.

As for `O=C(Nc1ccc(F)cc1)NC1(C(=O)NCc2cccs2)CCCCC1`, the “hERG current change (%, negative = inhibition) at 10uM” value is 1.49%.

Turning to `COc1ccc(F)cc1C(=O)C1CCCN(C(=O)c2cccc(N(C)C)c2)C1` (stereo not drawn), the “hERG current change (%, negative = inhibition) at 10uM” value is listed as -12%.

Take `O=C(CCN1C(=O)C2CCCCC2C1=O)NNC(=O)c1cccc(Cl)c1` (stereo not drawn): the “hERG current change (%, negative = inhibition) at 10uM” value is listed as 6.14%.

Regarding `O=C(CCC1CCCCC1)NCc1cccs1`, the “hERG current change (%, negative = inhibition) at 10uM” value is reported as -4.05%.

For the compound `O=C(O)C1CCN(c2ccc(Cl)nn2)CC1`, the “hERG current change (%, negative = inhibition) at 10uM” value is -3.83%.

`COc1ccc2c(c1)c(=O)oc1cc(OCC(=O)NC3CCCCC3)ccc12`: the “hERG current change (%, negative = inhibition) at 10uM” value is reported as -2.11%.

As to `Cc1noc(C)c1C(=O)OCC(=O)Nc1ccc(C(N)=O)cc1`, the “hERG current change (%, negative = inhibition) at 10uM” value is on record as 19.7%.

Take `CCN(C(=O)CC(C)C)c1nnc(Cn2nnc3ccccc32)s1`: the “hERG current change (%, negative = inhibition) at 10uM” value is on record as -14%.

Regarding `O=C(NC12CC3CC(CC(C3)C1)C2)C1=COCCO1`, the “hERG current change (%, negative = inhibition) at 10uM” value is recorded as 11.2%.

On to `COc1ccc([N+](=O)[O-])cc1NC(=O)CCN1CCN(CCO)CC1`, for which the “hERG current change (%, negative = inhibition) at 10uM” value is reported as -9.47%.

For the compound `O=C1C=C(c2cccc3c2oc2ccccc23)CCC1`, the “hERG current change (%, negative = inhibition) at 10uM” value is recorded as -2.35%.

As for `O=C(Cc1ccccc1F)NNC(=O)c1ccncc1`, the “hERG current change (%, negative = inhibition) at 10uM” value worked out at 0.139%.

On to `Cc1sc2nc(CSCC(=O)Nc3c(F)cccc3F)[nH]c(=O)c2c1C`, for which the “hERG current change (%, negative = inhibition) at 10uM” value stood at 7.01%.

Consider `Cc1cccc(C(=O)NCCc2n[nH]c(=S)n2C)c1`, for which the “hERG current change (%, negative = inhibition) at 10uM” value is recorded as -3.72%.

As for `COc1ccc(CN2CCC(c3nc4ccc(Cl)cc4[nH]3)CC2)cc1`, the “hERG current change (%, negative = inhibition) at 10uM” value is -76.3%.

With `CCOC(=O)CSc1nc2sc(C)c(C)c2c(=O)[nH]1`, the “hERG current change (%, negative = inhibition) at 10uM” value is listed as 9.45%.

For the compound `CS(=O)(=O)Nc1cccc(C2=NN(C(=O)CCC(=O)O)C(c3cccs3)C2)c1` (stereo not drawn), the “hERG current change (%, negative = inhibition) at 10uM” value is 26.3%.

Take `CC1CCCC(NC(=O)c2cc(S(=O)(=O)N3CCCCC3)ccc2Cl)C1C` (stereo not drawn): the “hERG current change (%, negative = inhibition) at 10uM” value was -0.241%.

Turning to `CCOC(=O)NC(O)C(=O)c1ccc(F)cc1` (stereo not drawn), the “hERG current change (%, negative = inhibition) at 10uM” value is given as 14.8%.

For `COc1ccc(N=Nc2nc(-c3ccccc3)c(-c3ccccc3)[nH]2)cc1`, the “hERG current change (%, negative = inhibition) at 10uM” value is given as -6.99%.

For `Cc1ccc(NC(N)=S)cc1`, the “hERG current change (%, negative = inhibition) at 10uM” value was determined as 15%.

As for `CCOc1ccc(-n2cc(-c3ccccc3)c3c(SC(C)C(=O)OC)ncnc32)cc1` (stereo not drawn), the “hERG current change (%, negative = inhibition) at 10uM” value came to 28.9%.

With `Cc1ccc(CNC(=O)C2CCCN(C(=O)Nc3ccc(F)cc3)C2)cc1` (stereo not drawn), the “hERG current change (%, negative = inhibition) at 10uM” value stood at 1.95%.

As for `O=C1/C(=C/c2cccnc2)Oc2cc(OS(=O)(=O)c3ccc(Cl)cc3)ccc21`, the “hERG current change (%, negative = inhibition) at 10uM” value is reported as -4.17%.

Take `Cc1ccc(NS(=O)(=O)c2ccc3c(c2)oc(=O)n3C)cc1F`: the “hERG current change (%, negative = inhibition) at 10uM” value was 9.75%.

With `Cc1ccccc1Cn1c(CN2CCN(C(=O)c3ccco3)CC2)nc2c1c(=O)n(C)c(=O)n2C`, the “hERG current change (%, negative = inhibition) at 10uM” value is -45%.

As to `C[C@H]1CCC[C@]2(C)C[C@H]3OC(=O)C(CN4CCCCCC4)[C@H]3C=C12` (stereo partly drawn), the “hERG current change (%, negative = inhibition) at 10uM” value is -6.66%.

Consider `Cc1cccc(N(CC(=O)NCc2ccc(F)cc2)C(=O)c2csnn2)c1C`, for which the “hERG current change (%, negative = inhibition) at 10uM” value is -48%.

Turning to `CCOC(=O)C(NC(=O)c1ccc(F)cc1)(Nc1sc2c(c1C(N)=O)CCC2)C(F)(F)F` (stereo not drawn), the “hERG current change (%, negative = inhibition) at 10uM” value is listed as 3.06%.

On to `COc1ccc(C2N3CC(C)(C)CN23)cc1` (stereo not drawn), for which the “hERG current change (%, negative = inhibition) at 10uM” value is 15.2%.

As for `Cc1ccc(-c2noc(C3CCCCC3)n2)cc1`, the “hERG current change (%, negative = inhibition) at 10uM” value was 16.1%.

Consider `CCOC(=O)C1=C(COC(=O)COc2ccc(OCC)cc2)NC(=O)NC1C` (stereo not drawn), for which the “hERG current change (%, negative = inhibition) at 10uM” value was 5.59%.

With `COc1cc(C)c(CN2CCC(Cc3ccccc3)CC2)cc1C`, the “hERG current change (%, negative = inhibition) at 10uM” value is -45.3%.

`COc1ccc(NC(=O)N2CCC3(CC2)OCCO3)cc1`: the “hERG current change (%, negative = inhibition) at 10uM” value is -0.264%.

With `CS(=O)(=O)N(CC(=O)N1CCC(C(N)=O)CC1)c1ccc(Cl)c(C(F)(F)F)c1`, the “hERG current change (%, negative = inhibition) at 10uM” value is recorded as -5.29%.
